Results from patent US11000038B2, “Pyridone compounds and agricultural and horticultural fungicides containing the same as active ingredients” (priority 2017, dated 2021).
Read-outs that look alike come from different tables or passages of the source.

Assays:
[1] = test system: rice blast fungi (Magnaporthe grisea); assay type: in vivo; details: for Test A control value class (rice blast): control value=100{1-(n/3)}; for Test A control value: rice blast
[2] = test system: cucumber anthracnose fungi (Colletotrichum orbiculare); assay: Test Example H: cucumber anthracnose, spray treatment of cucumber plants; details: for Test H control value class (cucumber anthracnose): 2.5 ml/pot, cucumber Sagami Hanjiro, 6 to 10 days from inoculation; for Test H control value: cucumber anthracnose, 6 to 10 days after inoculation
[3] = test system: tomato late blight fungi (Phytophthora infestans); assay type: in vivo; details: for Test F control value class (tomato late blight): control value=100{1-(n/3)}; for Test F control value: tomato late blight
[4] = spray treatment of tomato plants

SMILES	Test A control value class (rice blast) ([1]; spray treatment of rice plants)	Test H control value class (cucumber anthracnose) ([2]; 250 ppm spray)	Test F control value class (tomato late blight) [3, 4]	Test A control value ([1]; spray treatment)	Test H control value ([2]; 250 ppm spray)	Test F control value ([3]; spray treatment)	further results
O=c1c(Br)cn(CC2CCCCC2)c(-c2c(F)cc(F)cc2F)c1Br [Compound 125]	H (H shows the control value of more than 50%)	L (L shows the control value of 50% or less)	L (L shows the control value of 50% or less)	–	–	–	–
Cc1cn(-c2ccccc2)c(-c2ccccc2C(F)(F)F)c(C)c1=O [Compound 581]	–	–	–	L (L shows the control value of 50% or less)	H (H shows the control value of more than 50%)	L (L shows the control value of 50% or less)	–
CCc1c(-c2c(F)cc(F)cc2F)n(-c2cc(Cl)ccc2C)cc(C)c1=O [Compound 570]	–	–	–	H (H shows the control value of more than 50%)	H (H shows the control value of more than 50%)	L (L shows the control value of 50% or less)	–
Cc1c(N)cccc1-n1cc(Br)c(=O)c(Cl)c1-c1c(F)cc(F)cc1F [Compound 333]	–	–	–	–	–	–	Test A control value ([1]; spray treatment of rice plants): H (H shows the control value of more than 50%); Test H control value ([2]; 250 ppm spray (2.5 ml/pot)): H (H shows the control value of more than 50%); Test F control value [3, 4]: L (L shows the control value of 50% or less)
O=c1c(Cl)cn(-c2ccccc2F)c(-c2c(F)cc(F)cc2F)c1Br [Compound 31]	H (H shows the control value of more than 50%)	H (H shows the control value of more than 50%)	L (L shows the control value of 50% or less)	–	–	–	–
O=c1c(Br)cn(C2CCCCC2)c(-c2c(F)cc(F)cc2F)c1Cl [Compound 29]	H (H shows the control value of more than 50%)	H (H shows the control value of more than 50%)	L (L shows the control value of 50% or less)	–	–	–	–
Cc1ccc(-n2cc(Br)c(=O)c(Cl)c2-c2c(F)cc(F)cc2F)c(C)c1 [Compound 256]	–	–	–	–	–	–	Test A control value ([1]; spray treatment of rice plants): H (H shows the control value of more than 50%); Test H control value ([2]; 250 ppm spray (2.5 ml/pot)): H (H shows the control value of more than 50%); Test F control value [3, 4]: L (L shows the control value of 50% or less)
O=c1c(Cl)cn(-c2ccon2)c(-c2c(F)cc(F)cc2F)c1Cl [Compound 128]	H (H shows the control value of more than 50%)	H (H shows the control value of more than 50%)	L (L shows the control value of 50% or less)	–	–	–	–
CCc1c(-c2ccccc2)n(-c2cc(OC)ccc2C)cc(Br)c1=O [Compound 504]	–	–	–	L (L shows the control value of 50% or less)	H (H shows the control value of more than 50%)	L (L shows the control value of 50% or less)	–
Cc1c(-n2cc(Cl)c(=O)c(Cl)c2-c2c(F)cc(F)cc2F)cccc1[N+](=O)[O-] [Compound 420]	–	–	–	L (L shows the control value of 50% or less)	H (H shows the control value of more than 50%)	L (L shows the control value of 50% or less)	–
O=c1c(Cl)cn(CCc2ccccc2)c(-c2c(F)cc(F)cc2F)c1Br [Compound 95]	L (L shows the control value of 50% or less)	L (L shows the control value of 50% or less)	L (L shows the control value of 50% or less)	–	–	–	–
Cc1ccccc1-n1cc(C)c(=O)c(C)c1-c1ccccc1F [Compound 353]	–	–	–	–	–	–	Test A control value ([1]; spray treatment of rice plants): H (H shows the control value of more than 50%); Test H control value ([2]; 250 ppm spray (2.5 ml/pot)): H (H shows the control value of more than 50%); Test F control value [3, 4]: L (L shows the control value of 50% or less)
O=c1c(Br)cn(-c2ccccc2Br)c(-c2c(F)cccc2F)c1Br [Compound 91]	H (H shows the control value of more than 50%)	H (H shows the control value of more than 50%)	L (L shows the control value of 50% or less)	–	–	–	–
Cc1c(Br)cccc1-n1cc(Br)c(=O)c(Cl)c1-c1c(F)cc(F)cc1F [Compound 346]	–	–	–	–	–	–	Test A control value ([1]; spray treatment of rice plants): H (H shows the control value of more than 50%); Test H control value ([2]; 250 ppm spray (2.5 ml/pot)): H (H shows the control value of more than 50%); Test F control value [3, 4]: L (L shows the control value of 50% or less)
COc1ccc(Br)c(-n2cc(C)c(=O)c(C)c2-c2c(F)cccc2F)c1 [Compound 602]	–	–	–	H (H shows the control value of more than 50%)	H (H shows the control value of more than 50%)	L (L shows the control value of 50% or less)	–
O=c1c(Br)cn(-c2ccon2)c(-c2c(F)cc(F)cc2F)c1Cl [Compound 126]	H (H shows the control value of more than 50%)	H (H shows the control value of more than 50%)	L (L shows the control value of 50% or less)	–	–	–	–

SMILES	Test A control value class (rice blast) ([1]; spray treatment of rice plants)	Test H control value class (cucumber anthracnose) ([2]; 250 ppm spray)	Test F control value class (tomato late blight) [3, 4]	Test A control value ([1]; spray treatment)	Test H control value ([2]; 250 ppm spray)	Test F control value ([3]; spray treatment)	further results
COCCOc1ccc(C)c(-n2cc(Br)c(=O)c(Cl)c2-c2c(F)cccc2F)c1 [Compound 431]	–	–	–	L (L shows the control value of 50% or less)	H (H shows the control value of more than 50%)	L (L shows the control value of 50% or less)	–
CCc1ccc(OCCOC)cc1-n1cc(C)c(=O)c(C)c1-c1c(F)cccc1F [Compound 626]	–	–	–	L (L shows the control value of 50% or less)	L (L shows the control value of 50% or less)	L (L shows the control value of 50% or less)	–
CCc1c(-c2c(F)cc(F)cc2F)n(-c2cccc(Cl)c2C)cc(Br)c1=O [Compound 515]	–	–	–	H (H shows the control value of more than 50%)	H (H shows the control value of more than 50%)	H (H shows the control value of more than 50%)	–
Cc1cc(Cl)ccc1-n1cc(Cl)c(=O)c(Cl)c1-c1c(F)cc(F)cc1F [Compound 332]	–	–	–	–	–	–	Test A control value ([1]; spray treatment of rice plants): H (H shows the control value of more than 50%); Test H control value ([2]; 250 ppm spray (2.5 ml/pot)): H (H shows the control value of more than 50%); Test F control value [3, 4]: L (L shows the control value of 50% or less)
Cc1cc(Cl)ccc1-n1cc(Br)c(=O)c(Cl)c1-c1c(F)cc(F)cc1F [Compound 329]	–	–	–	–	–	–	Test A control value ([1]; spray treatment of rice plants): H (H shows the control value of more than 50%); Test H control value ([2]; 250 ppm spray (2.5 ml/pot)): H (H shows the control value of more than 50%); Test F control value [3, 4]: L (L shows the control value of 50% or less)
CCc1ccc(OC)cc1-n1cc(C)c(=O)c(CC)c1-c1c(F)cccc1F [Compound 628]	–	–	–	L (L shows the control value of 50% or less)	H (H shows the control value of more than 50%)	L (L shows the control value of 50% or less)	–
O=c1c(Br)cn(C2CCCCC2)c(-c2c(F)cc(F)cc2F)c1Br [Compound 30]	H (H shows the control value of more than 50%)	H (H shows the control value of more than 50%)	L (L shows the control value of 50% or less)	–	–	–	–
Cc1ccc(Br)cc1-n1cc(C)c(=O)c(C)c1-c1c(F)cccc1F [Compound 487]	–	–	–	H (H shows the control value of more than 50%)	L (L shows the control value of 50% or less)	L (L shows the control value of 50% or less)	–
Cc1ccc(C#N)cc1-n1cc(Br)c(=O)c(Cl)c1-c1c(F)cc(F)cc1F [Compound 336]	–	–	–	–	–	–	Test A control value ([1]; spray treatment of rice plants): H (H shows the control value of more than 50%); Test H control value ([2]; 250 ppm spray (2.5 ml/pot)): H (H shows the control value of more than 50%); Test F control value [3, 4]: L (L shows the control value of 50% or less)
COc1cc(F)c(-c2c(Br)c(=O)c(Br)cn2CCc2ccccc2)c(F)c1 [Compound 104]	L (L shows the control value of 50% or less)	L (L shows the control value of 50% or less)	L (L shows the control value of 50% or less)	–	–	–	–
CCc1c(-c2ccc(F)cc2Br)n(-c2ccccc2)cc(Br)c1=O [Compound 613]	–	–	–	H (H shows the control value of more than 50%)	L (L shows the control value of 50% or less)	L (L shows the control value of 50% or less)	–
Cc1cccc(Cl)c1-n1cc(Cl)c(=O)c(Cl)c1-c1ccc(F)cc1 [Compound 382]	–	–	–	H (H shows the control value of more than 50%)	H (H shows the control value of more than 50%)	L (L shows the control value of 50% or less)	–
Cc1ccc(Br)cc1-n1cc(C)c(=O)c(C)c1-c1c(F)cc(F)cc1F [Compound 472]	–	–	–	H (H shows the control value of more than 50%)	H (H shows the control value of more than 50%)	L (L shows the control value of 50% or less)	–
O=c1c(Cl)cn(-c2ccccc2F)c(-c2c(F)cc(F)cc2F)c1Cl [Compound 24]	H (H shows the control value of more than 50%)	H (H shows the control value of more than 50%)	L (L shows the control value of 50% or less)	–	–	–	–
CCc1c(-c2c(F)cccc2F)n(-c2ccccc2Cl)cc(Br)c1=O [Compound 511]	–	–	–	L (L shows the control value of 50% or less)	H (H shows the control value of more than 50%)	L (L shows the control value of 50% or less)	–
